# Test results as given in the supplement of paper PMC11417369.
# The other results are listed elsewhere or left out.
# System: PfSIP2 AP2 domain 1 (GST-tagged)
# Test: gcPBM binding intensity (ln(normalized median fluorescence intensity)); higher = stronger DNA binding
# Outline: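 Plasmodium falciparum DNA-binding domains carrying a GST tag were expressed in E. coli and applied for 1 h, at about 25 μg on average, to an Agilent 4 × 180k array. The array held primer-extended double-stranded 36-bp intergenic genomic probes together with negative controls, and binding took place in 1× PBS with 1% milk, 0.2 mg/ml BSA, 0.5% salmon testes DNA and 0.03% Triton X-100. An Alexa488 anti-GST antibody detected bound protein, and the array was scanned at 488 nm. Binding intensity is taken as the highest Masliner-normalised natural-log median intensity across replicate spots of either probe orientation.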
row,Sequence,gcPBM binding intensity (ln)
1,TATGTGAAATAAGGATGTACAATTTTGATTTCCCCA [XGTACX_site8389],6.95
2,TTTAATGAAAGAAACACATACGTATCAAAATATATG [TGCATGCA_negctrl_site510],6.9
3,TACGTTGTATATTTTTGTACATATTGAATTACAAAA [XGTACX_site5906],6.95
4,TTTTAATAATTTATAAAAAAAAAAAAAAAATAAATA [TGCATGCA_negctrl_site419],6.62
5,AAATGAATAAATAGGTCACACACAAATATATATAAA [CACACA_site8764],6.97
6,ATATATATATATATATGTACATATACATATGTGCAA [XGTACX_site5604],9.01
7,TATTTTTAAAATATAAGTAAAAAAATAATATAAACT [TGCATGCA_negctrl_site283],7
8,AATAAATAAAGAAGTACACACATATATATATATATA [CACACA_site4314],9.3
9,TAATTTCTTAGGTATTGTACAAATATTATATGATAT [XGTACX_site256],7.05
10,ATAATAAAAAAAATTAGTACATATATAAATATAAAT [XGTACX_site1937],6.85
11,ATATATCTATAAAAGGCTTCCCACTTTTTTTGTCAA [TGCATGCA_negctrl_site332],6.88
12,AGTACATTTTTGTGTGTGCACTAATATTATATACTT [GTGCAC_site9568],10.3
13,ATTTATTTTATTTTCACACACAAAAATAAATATCCG [CACACA_site2414],7.01
14,ATAAAAAAAAAAAAAAGTACACATATAAAAGTATTG [XGTACX_site8265],6.92
15,TAAATAATATCTATCACACACGCATAAATACAGATA [CACACA_site5449],6.98
16,ATTCTACCACGCGATATACACACTTGTAGACATCTT [CACACA_site188],7.29
17,TATAATGTATGTAGTGCACACCTCTATAATATATTA [CACACA_site8560],10.3
18,AAATTTATGTGTGCCTGTACATATCAAAGATTTAAG [XGTACX_site8547],7.14
19,CGCAATTAAAATATGTGTCCTCATTTTATAACATTT [XGTACX_site5340],6.98
20,TATTTACAAAAAAAATATAAAAAATATAAAATATAT [CACACA_negctrl_site575],6.88
21,AATATTAAAATAAAAAGTACTTATTTATGTATGTTG [XGTACX_site2682],7.25
22,TGTATAATATTTGGTGCACACAAATTAACAACTGTT [CACACA_site9245],11.4

row,Sequence,gcPBM binding intensity (ln)
1,TTTATATAACAACAAAATGGAAATATATATGTATGT [TGCATGCA_negctrl_site98],7.15
2,AAAAAAAAAAAAGAACGTACAAATTAATTTATAGAA [XGTACX_site5584],6.93
3,CAGACATATTAAAAGAGTACATATATATATATATAT [XGTACX_site1158],9.88
4,TGTTTATTACTCAGGTGTACTCAATTTTTTTTTTTT [XGTACX_site3470],7.18
5,TACACAAATATATACATACACACATATATACGCATA [CACACA_site394],7.19
6,TAATATTGACTATATACACACATATATATATATATA [CACACA_site575],9.62
7,GTACAAAAAAAAATAAAATACATATATATATATATA [GTGCAC_negctrl_site364],9.59
8,AAAAAATTCATATATACACACACGCACATATATATA [CACACA_site4226],7.48
9,TATTATATATATGTTGACATATTTGTACACTCCACT [TGCATGCA_negctrl_site200],7.2
10,AAAATATTTCATATATGTACTTAAAAAAAAAAAAAA [XGTACX_site5399],7.11
11,GAATATATAAGATACACACACAAATTAAATATAAAA [CACACA_site2781],7.07
12,AAAAAAAAAAAAAACACACACACACGCATAAATATA [CACACA_site6217],7.42
13,CACTTTTCTGGAAAAATTCCCACATTTTTTTATTAA [GTGCAC_negctrl_site322],6.98
14,GATAAAGTACTTTATACACACAAATATTTATTTATA [CACACA_site7795],7.04
15,TCTTCATATAAGAACACATGCAGATTTTTATTATTG [TGCATGCA_site682],6.94
16,TTATGTAAAAAAAAAAAAAAAAAAAAAAAAAAAAAA [CACACA_negctrl_site984],6.93
17,CATATAATATAATTATGTACATATATAATAATATAC [XGTACX_site5278],7.11
18,AAAAAAAAAAAAAAACGTACACATATTATGTTATTT [XGTACX_site5264],7.41
19,AAAAAAAAGTTGTATTGTACAAAAAAAAAAAAAAAA [XGTACX_site8334],7.08
20,TCATAAAAACTAATACGTACTTAAAAATATGAACTT [XGTACX_site2939],6.99
21,AATCCCCACTTGTCAAGTACATATATCATGGATGAA [XGTACX_site3486],6.97
22,TATTTATAACAAAGGTTAAATTAAAACTAATCCACA [TGCATGCA_negctrl_site3],6.73
